Test results from patent US10172824B2, “Crystal forms of scutellarin aglycone and preparation thereof” (YUNNAN INSTITUTE OF MATERIA MEDICA, priority 2014, dated 2019).

Assay: Solubility of crystal forms in isopropanol
Format: physicochemical

## O=c1cc(-c2ccc(O)cc2)oc2cc(O)c(O)c(O)c12 [crystal form A, 5,6,7-trihydroxy-2-(4-hydroxyphenyl)-4H-benzopyran-4-one]
  solubility in isopropanol (rank order): crystal form A>crystal form D>crystal form E
